From the RNAGym collection of RNA variant scans (doi:10.7554/elife.90254)
The source gives no read counts; variants with many changes may rest on few reads.

B1: OR4K15 (parent)
chain: GUUAACGGUCAUAGGCCAUGGAAACUAGGAGCACCAUUUCGCUGCCAGUGAAGAAAUGAACAAAGAAAAUCUGGGCCAGGCAGGCAUCAAAAGAAAUAGUCUUGCGCUCAACCAGAAAGUCUGUAAUCAUUUUAAGGGUA

Variants of: B1
Assay: self-cleavage, relative activity (ratio to wild type); higher = more cleavage; in vitro, sequencing; the parent is a self-cleaving ribozyme

Row | Variant | self-cleavage
1 | U9C A30G A33G A60G A110C | 0.21
2 | U9A A59G U72C A94U U127C U132C | 0.05
3 | U9C A68U U122C | 1.84
4 | U9C A33G A116G | 0.66
5 | U9C A60G A82G U120C A126C | 0.18
6 | U9A A23G C34A A67U A69G U87C | 0.7
7 | U9C U43A A90G C128U A129G | 0.34
8 | U9C A23G U39A A67G A78U | 0.48
9 | U9C A86U A96G | 1.87
10 | U9C A24G A118G | 0.94
11 | U9A U19C A24G A116G | 0.64
12 | U9A A23G A27G U39A A94U | 0.94
13 | U9A U43C U87C U100C | 2.4
14 | U9C G20A A94G | 1.33
15 | U9C U39A A96G U131C | 1.75
16 | G8A A30G U49A | 2.02
17 | U9A A68G U72A A90G U130C | 0.06
18 | U9A U122C U131C | 0.68
19 | G8U U43C A52G A66G | 1.72
20 | U9C A63G U70A U122C | 1.21
21 | U9C U39C A51G | 2.39

Row | Variant | self-cleavage
22 | U9C A59G A86G A89G A96G | 2.19
23 | U9C U43C A69G U72C A94G A134G | 0.24
24 | G8A G73U A78G A117G U131C | 0.12
25 | U9C U37A A67G A117U | 1.35
26 | U9A U49C A56G | 0.79
27 | U9A A59G A66G C85U A114G | 0.18
28 | U9C U37C C40U U102C | 1.55
29 | U9C U12C A56G A86G A140G | 0.69
30 | U9C U49C A56G A110U | 0.82
31 | U9C U39C U72C U87A A92G A140G | 0.26
32 | U9C A23U C101A C105G | 0.02
33 | U9A U70C U100C | 1.34
34 | U9C A52G A59G A62U | 1.19
35 | U9A A67U U120C C128U | 0.32
36 | U9C U38C A54G A116G A135C | 1.7
37 | G8C A64G A82G A111G | 0.09
38 | U9C A54G A111G | 0.01
39 | U9C U49C A82U | 0.16
40 | U9C U19C A51G A92G A110G | 0.24
41 | U9C A23U U57C | 1.42
42 | U9C A11U A18G U26C U87C A135G | 0.54

Row | Variant | self-cleavage
43 | U9C A47G A82U | 0.19
44 | U9A A78G U122C | 0.37
45 | U9C A111U A126G G136U | 0.09
46 | U9C U38C A95G | 2.32
47 | U9C A91U A111G | 0.02
48 | U9C A11G A59G U130C | 0.78
49 | U9A A24C A111G | 0.06
50 | U9C C45A A51G | 0.89
51 | U9C A60U A67G A68G | 1.26
52 | U9A A60G A89G | 1.27
53 | U9C A36G A64G G80U | 0.19
54 | U9A C105U A114U | 0.04
55 | U9C U19C A90G A111U | 0.07
56 | U9C G79A A118U | 0.08
57 | U9C A33U A69G A86G A114U | 0.09
58 | G8A A68G U132C | 1.62
59 | U9C A24G A69G A89G U132C | 1.93
60 | U9C A30G A140U | 1.33
61 | G8A A116G U122A | 0.97
62 | U9C A23G C77A | 0.75
63 | U9C C35A U49C | 0.91

Row | Variant | self-cleavage
64 | U9A U37C A56G A114G | 0.47
65 | U9C C25U A52G | 1.3
66 | U9A A60U A96G A116G | 1.08
67 | U9C A22G A59G A78U A117G | 0.23
68 | U9C A60G U97C U122A | 0.3
69 | U9C U12C U19C A94G A95G U102C U122A | 1.74
70 | U9C A54G A59G A135G | 1.02
71 | G8A A27G A82G | 0.19
72 | U9C U39C U43C U57C U70C U132C | 0.65
73 | U9C U49C A51G | 1.3
74 | U9C A24U A54G U102C | 1.96
75 | U9C G106A U122C | 0.01
76 | U9C U12C U43A C85U A89G | 1.56
77 | U9C A11G A30G A33G A67G A68G U102C | 1.2
78 | U9C A13G A51G | 0.82
79 | U9C A47U A92G | 0.81
80 | U9C A92G A114G A116G | 0.1
81 | U9C A36G A82C | 0.11
82 | U9C C85U A89G | 1.13
83 | U9C A60G U131C | 1.73
84 | U9C U38C A51G U139A | 1.34
